# Source: the supplement of paper PMC8728848
# The list shows a part of the results.
# B1: CGL (Crenomytilus grayanus), H2FH31 (protein)
# chain: MTTFLIKHKASGKFLHPYGGSSNPANNTKLVLHSDIHERMYFQFDVVDERWGYIKHVASGKIVHPYGGQANPPNETNMVLHQDRHDRALFAMDFFNDNIMHKGGKYIHPKGGSPNPPNNTETVIHGDKHAAMEFIFVSPKNKDKRVLVYA
# How the values were obtained:
# Assay in all cases: glycan array binding signal (z-score within array); higher = stronger binding
# Conditions in all cases: glycan notation: IUPAC condensed, linker removed
# [1] = molecular target: Neu5Ac(a2-6)GlcNAc(b1-4)GlcNAc(b1-4)GlcNAc
# Procedure, shortened: (§1)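 Arrays were curated from the Consortium for Functional Glycomics database, 3228 in total, and kept only where the protein sequence was available. Binding is expressed as a within-array Z-score. This score was averaged across arrays of the same protein sequence at different concentrations or buffers and across linkers, and negative values can be read as non-binding.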
# Neu5Ac(a2-8)Neu5Ac = molecular target: Neu5Ac(a2-8)Neu5Ac
# Procedure, shortened: as §1
# [2] = molecular target: Neu5Ac(a2-8)Neu5Ac(a2-3)Gal(b1-3)GalNAc(b1-4)[Neu5Ac(a2-3)]Gal(b1-4)Glc
# Procedure, shortened: as §1
# [3] = molecular target: Neu5Ac(a2-8)Neu5Ac(a2-3)Gal(b1-3)GalNAc(b1-4)[Neu5Ac(a2-8)Neu5Ac(a2-3)]Gal(b1-4)Glc
# Procedure, shortened: as §1
# [4] = molecular target: Neu5Ac(a2-8)Neu5Ac(a2-3)Gal(b1-4)Glc
# Procedure, shortened: as §1
# [5] = molecular target: Neu5Ac(a2-8)Neu5Ac(a2-3)Gal(b1-4)GlcNAc
# Procedure, shortened: as §1
# [6] = molecular target: Neu5Ac(a2-8)Neu5Ac(a2-3)[Gal(b1-3)GalNAc(b1-4)]Gal(b1-4)Glc
# Procedure, shortened: as §1
# [7] = molecular target: Neu5Ac(a2-8)Neu5Ac(a2-3)[GalNAc(b1-4)]Gal(b1-4)Glc
# Procedure, shortened: as §1
# [8] = molecular target: Neu5Ac(a2-8)Neu5Ac(a2-8)Neu5Ac
# Procedure, shortened: as §1
# [9] = molecular target: Neu5Ac(a2-8)Neu5Ac(a2-8)Neu5Ac(a2-3)Gal(b1-4)Glc
# Procedure, shortened: as §1
# [10] = molecular target: Neu5Ac(a2-8)Neu5Ac(a2-8)Neu5Ac(a2-3)[Gal(b1-3)GalNAc(b1-4)]Gal(b1-4)Glc
# Procedure, shortened: as §1
# [11] = molecular target: Neu5Ac(a2-8)Neu5Ac(a2-8)Neu5Ac(a2-3)[GalNAc(b1-4)]Gal(b1-4)Glc
# Procedure, shortened: as §1
# [12] = molecular target: Neu5Ac(a2-8)Neu5Ac(a2-8)Neu5Ac(a2-8)Neu5Ac(a2-3)[GalNAc(b1-4)]Gal(b1-4)Glc
# Procedure, shortened: as §1
# [13] = molecular target: Neu5Ac(a2-8)Neu5Gc(a2-3)Gal(b1-4)GlcNAc
# Procedure, shortened: as §1
# [14] = molecular target: Neu5Ac(b2-6)Gal(b1-4)GlcNAc
# Procedure, shortened: as §1
# Neu5Ac(b2-6)GalNAc = molecular target: Neu5Ac(b2-6)GalNAc
# Procedure, shortened: as §1
# [15] = molecular target: Neu5Ac9Ac(a2-3)Gal(b1-3)GlcNAc
# Procedure, shortened: as §1
# [16] = molecular target: Neu5Ac9Ac(a2-3)Gal(b1-4)GlcNAc
# Procedure, shortened: as §1
# [17] = molecular target: Neu5Ac9Ac(a2-6)Gal(b1-4)GlcNAc
# Procedure, shortened: as §1
# [18] = molecular target: Neu5Gc(a2-3)Gal(b1-3)GlcNAc
# Procedure, shortened: as §1
# [19] = molecular target: Neu5Gc(a2-3)Gal(b1-3)[Fuc(a1-4)]GlcNAc
# Procedure, shortened: as §1
# Neu5Gc(a2-3)Gal(b1-4)Glc = molecular target: Neu5Gc(a2-3)Gal(b1-4)Glc
# Procedure, shortened: as §1
# [20] = molecular target: Neu5Gc(a2-3)Gal(b1-4)GlcNAc
# Procedure, shortened: as §1
# [21] = molecular target: Neu5Gc(a2-3)Gal(b1-4)GlcNAc(b1-3)Gal(b1-4)GlcNAc(b1-2)Man(a1-3)[Neu5Gc(a2-3)Gal(b1-4)GlcNAc(b1-3)Gal(b1-4)GlcNAc(b1-2)Man(a1-6)]Man(b1-4)GlcNAc(b1-4)GlcNAc
# Procedure, shortened: as §1
# [22] = molecular target: Neu5Gc(a2-3)Gal(b1-4)[Fuc(a1-3)]GlcNAc
# Procedure, shortened: as §1
# [23] = molecular target: Neu5Gc(a2-6)Gal(b1-4)GlcNAc
# Procedure, shortened: as §1
# Neu5Gc(a2-6)GalNAc = molecular target: Neu5Gc(a2-6)GalNAc
# Procedure, shortened: as §1
# [24] = molecular target: Neu5Gc(a2-8)Neu5Ac(a2-3)Gal(b1-4)GlcNAc
# Procedure, shortened: as §1
# [25] = molecular target: Neu5Gc(a2-8)Neu5Gc(a2-3)Gal(b1-4)GlcNAc
# Procedure, shortened: as §1
# [26] = molecular target: Neu5Gc(a2-8)Neu5Gc(a2-3)Gal(b1-4)GlcNAc(b1-3)Gal(b1-4)GlcNAc
# Procedure, shortened: as §1
# [27] = molecular target: Neu5Gc(a2-8)Neu5Gc(a2-6)Gal(b1-4)GlcNAc
# Procedure, shortened: as §1
# [28] = molecular target: Neu5Gc(b2-6)Gal(b1-4)GlcNAc
# Procedure, shortened: as §1
binder,measurement,setting,value
B1,glycan array binding signal (z-score),[1],-0.377
same,glycan array binding signal (z-score),Neu5Ac(a2-8)Neu5Ac,-0.335
same,glycan array binding signal (z-score),[2],-0.258
same,glycan array binding signal (z-score),[3],-0.156
same,glycan array binding signal (z-score),[4],-0.415
same,glycan array binding signal (z-score),[5],-0.387
same,glycan array binding signal (z-score),[6],-0.392
same,glycan array binding signal (z-score),[7],-0.366
same,glycan array binding signal (z-score),[8],-0.315
same,glycan array binding signal (z-score),[9],-0.311
same,glycan array binding signal (z-score),[10],-0.174
same,glycan array binding signal (z-score),[11],-0.372
same,glycan array binding signal (z-score),[12],-0.352
same,glycan array binding signal (z-score),[13],-0.446
same,glycan array binding signal (z-score),[14],-0.426
same,glycan array binding signal (z-score),Neu5Ac(b2-6)GalNAc,-0.351
same,glycan array binding signal (z-score),[15],-0.374
same,glycan array binding signal (z-score),[16],-0.297
same,glycan array binding signal (z-score),[17],-0.355
same,glycan array binding signal (z-score),[18],-0.403
same,glycan array binding signal (z-score),[19],-0.349
same,glycan array binding signal (z-score),Neu5Gc(a2-3)Gal(b1-4)Glc,-0.418
same,glycan array binding signal (z-score),[20],-0.291
same,glycan array binding signal (z-score),[21],-0.312
same,glycan array binding signal (z-score),[22],-0.312
same,glycan array binding signal (z-score),[23],-0.252
same,glycan array binding signal (z-score),Neu5Gc(a2-6)GalNAc,-0.32
same,glycan array binding signal (z-score),[24],-0.384
same,glycan array binding signal (z-score),[25],-0.331
same,glycan array binding signal (z-score),[26],-0.376
same,glycan array binding signal (z-score),[27],-0.427
same,glycan array binding signal (z-score),[28],-0.295
